# The list shows a part of the results.
# T1: UNK ZnF1-3 (human, UniProt Q9C0B0 31-174)
# T1 sequence: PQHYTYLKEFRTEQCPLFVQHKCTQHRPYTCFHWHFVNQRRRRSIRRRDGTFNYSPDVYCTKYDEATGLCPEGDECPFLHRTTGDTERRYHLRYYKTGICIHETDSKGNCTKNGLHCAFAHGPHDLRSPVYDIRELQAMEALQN
# B1: chr8:124405102:124405103:-_ENSMUSG00000040010_ENSMUST00000045557|mus_mus|FALSE|FALSE (ssRNA)
# RNA: GGGAGUUCUACAGUCCGACGAUCCCCAAAAAAACAAAAAGCCUCACAAAACAGCAGACCUCUGUACCCCCCCCCCAGUCUAAUGUAACAGGCUAGCCAUUAAUACAAUAGUAAAAGACAUUAUAACCACAGCACUAUCUCAGGCAACAGAGGAUUGAGCAUCA
# B2: 129281792_129283504_579_CDS_ENSG00000156709_ENST00000287295|human|control|control (ssRNA)
# RNA: GGGAGUUCUACAGUCCGACGAUCUAGCAGGAAAGGAACAUGACUUGGCGCCUUGUCUUGAGGAACUUCCUCUCCUUCUGAAGCAGAUAACGCGGCCUUUUUCUGUUUCUGUUCUGGUGUCAGCCCUAACCCUGAAAUUCUUUCCAACAGAGGAUUGAGCAUCA
# B3: chr5:107067165:107067166:-_ENSMUSG00000049606_ENSMUST00000112696|mus_mus|motif|central (ssRNA)
# RNA: GGGAGUUCUACAGUCCGACGAUCAACUAAAGCAGAGGUAGGUACUUUUUUAAUGGAAUGGGUUGGAUUCUUAGCAUGUGCGGCAUCUGAUAACAAAAACAGAACUUGGUGUUGACUUGCUUUUUGUGGUGUAGACAGCUGAUGCAACAGAGGAUUGAGCAUCA
# B4: chr7:54825262:54825263:-_ENSG00000132432_ENST00000352861|hu_hu|hu_hu_hu_mus_False|48_108 (ssRNA)
# RNA: GGGAGUUCUACAGUCCGACGAUCCUGACUUGGCUCAUCCACAAACUGCAUUACCUGAUCCAUGUUUGUUGGAUGGCGGAUUGAGAGUGCCAGGGACCGUAGCUCAGGAGAGAACCGAGCCCAACGGAACCGGAAGCUGGCAACCAACAGAGGAUUGAGCAUCA
# B5: chr8:112342892:112342893:+_ENSMUSG00000031731_ENSMUST00000093157|mus_mus|FALSE|FALSE (ssRNA)
# RNA: GGGAGUUCUACAGUCCGACGAUCAUUAAGAUCAUUCUUGAUACAGUUGGUCAUGAGAAGAUGCACAUCUUGUCUUUCAUCUAAUAAUAGCAUUGCUCCUAAAUAGCCAAUGCGUUUGUCUGUGAAUUUUUGUGAGGCGAUUAGCAACAGAGGAUUGAGCAUCA
# B6: chr8:127197416:127197417:-_ENSMUSG00000037300_ENSMUST00000118134|mus_mus|motif|central (ssRNA)
# RNA: GGGAGUUCUACAGUCCGACGAUCUUUUGCUAUUUUGCUGAAGGCCUCUGAGCCAGGGGCUGUCAUGGCUUCAAAGUCGACGGACUGGAAAAGAGGAGGCGCAGGACGUGAUAAAAGGAAGGAAAUGGUGUGGGGUCUAGCUCGCAACAGAGGAUUGAGCAUCA
# B7: chr22:19452774:19452775:-_ENSG00000070010_ENST00000399523|hu_hu|hu_hu_hu_mus_False|78_108 (ssRNA)
# RNA: GGGAGUUCUACAGUCCGACGAUCCUUUUCAUUAUAGUUGAUAGCAAUCACAUCUCCGGUGGUCAGACAGGCGAAGUUUCUCAAUGCAUUUUCUAAUACCGCUUUAGGGUUGGUAAUAUCCAGGAAGUCUGGGCUCUGAGGCUGCAACAGAGGAUUGAGCAUCA
# B8: chr19:16452684:16452685:+_ENSMUSG00000024639_ENSMUST00000025541|perfect_dup|motif|central (ssRNA)
# RNA: GGGAGUUCUACAGUCCGACGAUCGUUUAAGAACAGAAUAACCGAGGAGUUCUGGAACCAGGGGUAUGUGAUAAUUGUUCGGAAGAGAGCCUUGCUUUCCUCCAUUCGGUUCUCAUUGUCUGACUCCACGAGAACUUGAUCAUACAACAGAGGAUUGAGCAUCA
# B9: chr14:76906223:76906224:+_ENSMUSG00000022010_ENSMUST00000022587|mus_hu|FALSE|FALSE (ssRNA)
# RNA: GGGAGUUCUACAGUCCGACGAUCCACUUCUUCUCUGACCGCAUACAUCAAAUGGCUUUUCACUAGAUCCAUAGCUUGCUCGAUUUUGUUGUCAAUAGCUACCACACUUGCACCAGAGGAGCUAUUAUCAAGUCUCACAGAAGCCAACAGAGGAUUGAGCAUCA
# B10: 59820266_59820386_262_5pUTR_ENSMUSG00000035469_ENSMUST00000043227|mouse|control|control (ssRNA)
# RNA: GGGAGUUCUACAGUCCGACGAUCAGCGCAGCUCCUCAGAGGCAGGCCGCGGGCAACGCCACGUACUCGGCUCGCCGCACACCUGGGGGAAGCGCCCGCAAGACGGAAUCCGCGGGUGCCCGGUGCGGGGUGCGCGUCGCCGGGCAACAGAGGAUUGAGCAUCA
# B11: chr18:48422213:48422214:+_ENSG00000082212_ENST00000321341|hu_hu|FALSE|FALSE (ssRNA)
# RNA: GGGAGUUCUACAGUCCGACGAUCGCUUGCCUUUUUCUUUUAUGUGCAAAUGUCGACAUGCCAAAGUACAAGUGGUGGAAACUACUCUUAACCGGGACAACAUCUUUUCUUUCACCAGAGGUCUCGCGCCGCGACAGGUGGUACCAACAGAGGAUUGAGCAUCA
# B12: 32800332_32819000_13448_CDS_ENSG00000115760_ENST00000421745|human|control|control (ssRNA)
# RNA: GGGAGUUCUACAGUCCGACGAUCAACAUUUUCCCUUUUAGAUCUUAAACGGUUGGUAUAGGUAUCAACACAGGUCUUCAUUUUGGCUAACAAUGUACCAACAGAAGUUUGACAUUCUGACUGUUCUUCUUCCUCUUCACCGUUCAACAGAGGAUUGAGCAUCA
# B13: chr14:70842435:70842436:-_ENSG00000213463_ENST00000256366|hu_mus|motif|central (ssRNA)
# RNA: GGGAGUUCUACAGUCCGACGAUCAACAACCAGCAACCUGUGCUGUACUCUCAGGGACACAGCACAUCCCGCAUUACGGAAGAGGUCGGCAGCAUCUUGGUGCAGCAGGUUCUUCAGAUCUUGGCCAUUUACCGAGAGGAUCUUCAACAGAGGAUUGAGCAUCA
# B14: chr9:72560005:72560006:+_ENSMUSG00000032216_ENSMUST00000034740|mus_hu|FALSE|FALSE (ssRNA)
# RNA: GGGAGUUCUACAGUCCGACGAUCCUGUUCUGCAUUAUCAUCUUCUGAGCCACUGGUUUUAGGUAAAUAAGUCAUUUUUAGUCUCAGAUAACCUUUAACUCUUGAUUUGUGACUUCUUGGAUGAAGAACAAAAUCCUUAAAUGUCAACAGAGGAUUGAGCAUCA
# Target: T1, UNK ZnF1-3
# Assay: nsRBNS (natural sequence RNA bind-n-seq); RBNS binding buffer (assumed for nsRBNS): 25 mM Tris pH 7.5, 150 mM KCl, 3 mM MgCl2, 0.01% Triton X-100, 500 ug/ml BSA, 20 U/ml SUPERase-In, 4 C; UNK is unkempt and MSI1 is Musashi-1; names of the RNAs are library labels; protein concentration not given here; high values mean tight binding
row,Binder,binding signal [enrichment R]
1,B1,2.43
2,B2,0.621
3,B3,1.57
4,B4,1.14
5,B5,0.549
6,B6,1.42
7,B7,0.969
8,B8,0.827
9,B9,1.19
10,B10,0.51
11,B11,0.834
12,B12,0.703
13,B13,1.52
14,B14,0.814

# Reference: publication PMC12136788
